Laboratory results published in PubChem BioAssay (Tox21).
Inconclusive results, whose numbers are uncertain, are shown with a selection of clear calls. Where a call stands in place of a potency, no number is given. For some assays here: Where the call is inconclusive, the potency comes from a doubtful curve fit. The source made the active and inactive calls. Unless noted, calls follow the shape of the dose curve; as a rule, active = well fitted curve in the direction sought with a large enough effect in the repeat runs; inconclusive = weak or mixed curves; inactive = no such curve, though single readings can be large; an effect the other way counts as inactive or inconclusive.

Assays:
[1] = biological target: Voltage-gated inwardly rectifying potassium channel KCNH2 (Homo sapiens) (UniProt Q12809); test: Human Ether-a-go-go-Related Gene (hERG) channel small molecule antagonists: fluorescence cell-based qHTS assay (AID 1671200); conditions: hERG-U2OS cells, FluxOR thallium flux fluorescence; series mostly up to 76.8 µM; also: nearly all actives have a fitted effect of over 50% in size; also: potency is read from the fitted curve at half-maximal effect;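 as to activity change, negative = inhibition: hERG-expressing U2OS cells given a thallium stimulus after FluxOR II dye loading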
Chain of UniProt Q12809 (Q12809 whole entry, looked up): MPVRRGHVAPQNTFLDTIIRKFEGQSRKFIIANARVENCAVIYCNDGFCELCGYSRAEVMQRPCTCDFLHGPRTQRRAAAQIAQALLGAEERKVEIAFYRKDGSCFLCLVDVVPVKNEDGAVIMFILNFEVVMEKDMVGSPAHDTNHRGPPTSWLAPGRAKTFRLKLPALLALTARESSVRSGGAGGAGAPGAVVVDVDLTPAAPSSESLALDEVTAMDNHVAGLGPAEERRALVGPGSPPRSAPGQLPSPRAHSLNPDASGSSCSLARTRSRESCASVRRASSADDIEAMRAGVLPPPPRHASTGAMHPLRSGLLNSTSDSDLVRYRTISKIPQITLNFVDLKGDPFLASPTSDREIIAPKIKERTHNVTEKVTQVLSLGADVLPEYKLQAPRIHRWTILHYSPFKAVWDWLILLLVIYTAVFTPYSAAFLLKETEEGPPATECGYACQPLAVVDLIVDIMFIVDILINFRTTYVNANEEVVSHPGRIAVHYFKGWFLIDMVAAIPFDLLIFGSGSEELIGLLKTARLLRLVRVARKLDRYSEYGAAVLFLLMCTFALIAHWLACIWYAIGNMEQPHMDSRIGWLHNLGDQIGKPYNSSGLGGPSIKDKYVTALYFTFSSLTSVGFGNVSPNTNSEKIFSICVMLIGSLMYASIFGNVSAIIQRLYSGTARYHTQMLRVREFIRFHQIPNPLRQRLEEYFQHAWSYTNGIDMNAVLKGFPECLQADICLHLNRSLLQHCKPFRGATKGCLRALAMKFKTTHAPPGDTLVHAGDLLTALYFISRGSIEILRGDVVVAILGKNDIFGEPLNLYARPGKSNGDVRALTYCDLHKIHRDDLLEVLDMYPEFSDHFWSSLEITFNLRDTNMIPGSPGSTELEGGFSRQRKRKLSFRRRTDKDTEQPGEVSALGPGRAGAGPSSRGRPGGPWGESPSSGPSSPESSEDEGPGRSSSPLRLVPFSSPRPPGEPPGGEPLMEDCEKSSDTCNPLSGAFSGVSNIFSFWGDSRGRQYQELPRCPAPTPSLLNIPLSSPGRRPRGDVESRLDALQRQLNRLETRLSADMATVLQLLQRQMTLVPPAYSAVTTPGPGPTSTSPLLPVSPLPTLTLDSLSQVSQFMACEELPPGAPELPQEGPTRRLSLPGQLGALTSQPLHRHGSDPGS
Method in brief: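 U2OS cells expressing the channel were plated at 1000 cells/well, incubated overnight at 37 C, then loaded with FluxOR II thallium-sensitive dye for 1 h at room temperature in the dark, with a further 10 min at room temperature before stimulation.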

[2] = qHTS assay to identify small molecule antagonists of the sonic hedgehog signaling (Shh) pathway - cell viability counter screen (AID 1259367); conditions: NIH/3T3 Gli1-Luc viability, CellTiter-Fluor, 24 h; series mostly up to 92.4 µM; also: nearly all actives have a fitted effect of over 55% in size
Method in brief: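 CellTiter-Fluor signal in conditioned medium-stimulated 3T3 Gli1-Luc cells, 23 hr compound exposure, 37C.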

[3] = biological target: Androgen receptor (Homo sapiens) (UniProt P10275); test: qHTS assay to identify small molecule agonists of the androgen receptor (AR) signaling pathway (AID 743036; active = well fitted activation curve with a large enough effect in the signal ratio in the repeat runs, with a control signal flat, not every such curve was filed as active; inconclusive = weak or mixed curves, or effect the other way; inactive = no such curve, though single readings can be large or run the other way; the % refers to the signal ratio); conditions: HEK293 AR-UAS-bla GripTite, beta-lactamase FRET ratio, 16 h; activation: at 62.4 µM (top of the series) unless noted
Chain of UniProt P10275 (P10275 whole entry, looked up): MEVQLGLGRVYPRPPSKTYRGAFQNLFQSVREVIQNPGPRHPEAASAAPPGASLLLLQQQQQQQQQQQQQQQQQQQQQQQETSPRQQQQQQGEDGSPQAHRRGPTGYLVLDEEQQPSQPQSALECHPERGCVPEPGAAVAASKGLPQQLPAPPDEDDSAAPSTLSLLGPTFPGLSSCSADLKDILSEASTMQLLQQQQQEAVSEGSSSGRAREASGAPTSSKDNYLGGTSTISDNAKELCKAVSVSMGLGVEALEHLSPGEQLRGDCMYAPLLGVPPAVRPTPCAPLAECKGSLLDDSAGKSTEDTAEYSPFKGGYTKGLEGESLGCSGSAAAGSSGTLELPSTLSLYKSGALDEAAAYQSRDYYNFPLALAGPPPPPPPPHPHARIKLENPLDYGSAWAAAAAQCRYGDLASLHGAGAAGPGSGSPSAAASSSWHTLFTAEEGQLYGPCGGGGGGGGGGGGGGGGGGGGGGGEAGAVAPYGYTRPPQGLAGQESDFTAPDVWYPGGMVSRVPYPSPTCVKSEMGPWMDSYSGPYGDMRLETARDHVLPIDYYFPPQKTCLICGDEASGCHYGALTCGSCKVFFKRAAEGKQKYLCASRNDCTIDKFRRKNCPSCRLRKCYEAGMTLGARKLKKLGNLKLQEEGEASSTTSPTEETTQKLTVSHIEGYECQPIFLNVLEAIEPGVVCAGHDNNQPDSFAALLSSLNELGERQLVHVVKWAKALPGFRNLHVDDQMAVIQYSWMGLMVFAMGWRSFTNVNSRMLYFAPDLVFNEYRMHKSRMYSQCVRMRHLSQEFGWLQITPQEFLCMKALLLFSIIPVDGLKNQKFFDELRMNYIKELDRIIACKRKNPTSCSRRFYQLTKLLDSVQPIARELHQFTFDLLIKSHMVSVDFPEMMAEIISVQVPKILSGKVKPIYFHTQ
Method in brief: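 HEK293 cells stably carrying a UAS-driven beta-lactamase reporter (GeneBLAzer AR-UAS-bla-GripTite) were plated at 2,000 cells/well, rested 4 h at 37C, then exposed to compounds in DMSO for 16 h. LiveBLAzer B/G FRET substrate was added for 2 h at room temperature; fluorescence read.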

[4] = biological target: Androgen receptor (Homo sapiens) (UniProt P10275); test: qHTS assay to identify small molecule antagonists of the androgen receptor (AR) signaling pathway (AID 743035; active = well fitted inhibition curve with a large enough effect in the signal ratio in the repeat runs, not every such curve was filed as active; inconclusive = weak or mixed curves, or effect the other way; inactive = no such curve, though single readings can be large or run the other way; the % refers to the signal ratio); conditions: HEK293 AR-UAS-bla, R1881-stimulated, beta-lactamase FRET, 16 h; activity change, negative = inhibition: at 58.5 µM (top of the series) unless noted
Method in brief: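 R1881 agonist challenge of a HEK293 UAS-beta-lactamase AR reporter line in the presence of compound (16 h, 37C); signal taken as FRET fluorescence after 2 h with LiveBLAzer B/G substrate at room temperature.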

[5] = qHTS assay to identify small molecule antagonists of the thyroid receptor (TR) signaling pathway (AID 743065); conditions: GH3.TRE-Luc, T3-stimulated luciferase inhibition, 23.5 h; series mostly up to 70.3 µM; also: nearly all actives have a fitted effect of over 55% in size
Method in brief: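 Antagonism measured as loss of luciferase signal in GH3 cells stably carrying a TRE-luciferase reporter, co-treated with compound and T3 (1 nM final) for 23.5 h at 37 C. Viability was read in the same well by CellTiter-Fluor.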

[6] = A CellTox Green Cytotoxicity Assay to monitor cytotoxicity in HEK293 cells - 40 hour (AID 1224871); conditions: CellTox Green fluorescence; series mostly up to 76.8 µM; also: nearly all actives have a fitted effect of over 45% in size
Method in brief: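 Tox21 screen in HEK293: membrane-impermeant cyanine dye fluoresces on binding dead-cell DNA; compound pinned 5 h post-seeding, plates held at 37 C, signal read repeatedly through 40 h.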

[7] = qHTS assay for small molecule disruptors of the mitochondrial membrane potential - cell viability (AID 720634; calls by dose curve; also: potency is read from the fitted curve at half-maximal effect; nearly all actives have a fitted effect of over 20% in size); conditions: HepG2 viability, ATP luminescence (CellTiter-Glo), 1 h; series mostly up to 83.2 µM
Method in brief: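 In this qHTS format, HepG2 cells plated overnight were pinned with compound, incubated 1 hr, and assayed for ATP luminescence with CellTiter-Glo after m-MPI dye addition.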

[8] = biological target: Glucocorticoid receptor (Homo sapiens) (UniProt P04150); test: qHTS assay to identify small molecule agonists of the glucocorticoid receptor (GR) signaling pathway (AID 720691; active = well fitted activation curve with a large enough effect in the signal ratio in the repeat runs, not every such curve was filed as active; inconclusive = weak or mixed curves, or effect the other way; inactive = no such curve, though single readings can be large or run the other way; the % refers to the signal ratio); conditions: GR-bla HeLa, beta-lactamase reporter ratio, 18 h; activation: at 62.4 µM (top of the series) unless noted
Chain of UniProt P04150 (P04150 whole entry, looked up): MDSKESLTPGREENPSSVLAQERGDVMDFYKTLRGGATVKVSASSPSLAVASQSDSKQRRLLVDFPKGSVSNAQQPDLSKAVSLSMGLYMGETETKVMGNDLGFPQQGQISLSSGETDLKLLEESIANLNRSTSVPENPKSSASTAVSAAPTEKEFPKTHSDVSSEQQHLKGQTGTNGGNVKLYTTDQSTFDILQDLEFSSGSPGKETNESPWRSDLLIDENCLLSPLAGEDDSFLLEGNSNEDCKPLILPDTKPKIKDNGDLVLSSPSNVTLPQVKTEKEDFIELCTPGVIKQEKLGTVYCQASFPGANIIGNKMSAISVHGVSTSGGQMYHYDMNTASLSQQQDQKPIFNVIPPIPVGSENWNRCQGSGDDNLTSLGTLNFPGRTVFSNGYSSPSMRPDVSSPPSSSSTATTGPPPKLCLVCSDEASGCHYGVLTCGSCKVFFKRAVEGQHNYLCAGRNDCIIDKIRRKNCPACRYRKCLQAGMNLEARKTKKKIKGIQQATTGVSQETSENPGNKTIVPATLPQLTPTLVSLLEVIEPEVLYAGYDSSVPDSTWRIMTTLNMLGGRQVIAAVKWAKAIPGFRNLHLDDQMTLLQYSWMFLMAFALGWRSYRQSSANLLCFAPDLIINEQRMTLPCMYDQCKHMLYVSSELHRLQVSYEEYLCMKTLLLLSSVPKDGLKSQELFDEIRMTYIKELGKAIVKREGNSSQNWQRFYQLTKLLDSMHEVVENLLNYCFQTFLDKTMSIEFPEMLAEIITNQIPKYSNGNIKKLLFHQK
Method in brief: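 Measures GR pathway activation through a GRE-beta-lactamase reporter stably integrated in HeLa cells, with 18 h compound treatment at 37 C and fluorescence detection using a FRET substrate.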

Aromatase (Homo sapiens) = Aromatase (Homo sapiens) (UniProt P11511); test: qHTS assay to identify aromatase inhibitors (AID 743083); conditions: MCF-7 aro ERE, testosterone-driven ERE luciferase, 24 h; series mostly up to 70.3 µM; also: potency is read from the fitted curve at half-maximal effect; nearly all actives have a fitted effect of over 55% in size
Chain of UniProt P11511 (P11511 whole entry, looked up): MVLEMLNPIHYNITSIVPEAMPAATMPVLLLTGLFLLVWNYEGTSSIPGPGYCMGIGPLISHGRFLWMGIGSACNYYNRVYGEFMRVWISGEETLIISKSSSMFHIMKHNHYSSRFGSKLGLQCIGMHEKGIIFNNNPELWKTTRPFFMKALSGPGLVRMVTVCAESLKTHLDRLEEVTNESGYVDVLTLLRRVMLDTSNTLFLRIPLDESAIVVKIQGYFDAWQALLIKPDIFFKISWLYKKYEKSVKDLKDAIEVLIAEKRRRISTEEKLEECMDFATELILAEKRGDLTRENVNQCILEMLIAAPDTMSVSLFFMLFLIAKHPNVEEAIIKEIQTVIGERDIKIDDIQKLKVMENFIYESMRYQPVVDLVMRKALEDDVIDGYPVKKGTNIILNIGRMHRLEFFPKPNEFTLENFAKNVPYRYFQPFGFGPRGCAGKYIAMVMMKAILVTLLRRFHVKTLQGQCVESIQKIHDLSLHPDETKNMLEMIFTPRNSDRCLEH
Tags tell the direction and shape of the fitted curve.

CC(C)(Oc1ccc(Cl)cc1)C(=O)OCCCOC(=O)C(C)(C)Oc1ccc(Cl)cc1
Potency [1]: inconclusive: 15.1 µM [inhibitor, partial curve, poor fit]

C/C(=C(\CCO)SS/C(CCO)=C(\C)N(C=O)Cc1cnc(C)nc1N)N(C=O)Cc1cnc(C)nc1N
Potency [2]: inactive

NC(=S)N/N=C/c1cccnc1
Potency [3]: inactive

CCCCCN(CCCCC)C(=O)C(CCC(=O)O)NC(=O)c1ccc(Cl)c(Cl)c1 (stereo unspecified)
activity change, negative = inhibition [4]: inconclusive: -90.6%

Cc1cc(C)c(C)cc1C
Potency [5]: inactive | Potency [6]: inactive | Potency [1]: inactive

CCCCOC(=O)[C@@H](C)Oc1ccc(Oc2ccc(C(F)(F)F)cn2)cc1
Potency [7]: inconclusive: 27.5 µM [cytotoxic, partial curve] | Potency [8]: inactive | Potency (Aromatase (Homo sapiens)): inconclusive: 0.0245 µM [inhibitor, full curve] | Potency [1]: inconclusive: 34.9 µM [inhibitor, partial curve]
